Results as given in ChEMBL document CHEMBL4888484, “Replenishing the malaria drug discovery pipeline: Screening and hit evaluation of the MMV Hit Generation Library 1 (HGL1) against asexual blood stage Plasmodium falciparum ,using a nano luciferase reporter read-out” (2022).
The whole screen tested about 150,000 compounds, of which about 540 (0.36%) showed an effect of 50% or more. The list shows a part of the results.

System: Plasmodium falciparum
Test: Primary screen in NF54 nanoGlo assay, in single point, at 2uM, 72h; a lower Z score goes with more inhibition
Format: functional, Erythrocyte
Conditions: timepoint 72 hour

SMILES	% Inhibition	Z score
Cc1ccc(CN2CCC(O)(C(F)(F)F)CC2)o1	-7%	0.95
Cc1ccc(OC2(C(=O)O)CCN(Cc3cccnc3N)CC2)cc1	-11%	1.01
Cc1ncsc1C(=O)N(C)c1nc2cc(Cl)ccc2s1	1%	-0.13
O=C(NCc1ccco1)c1cn2ccncc2n1	-17%	1.94
O=C(CCc1nc(C2CCCC2)no1)N1CCC([C@H](O)C(F)(F)F)CC1	-12%	2.35
CN(CCOc1ccccc1)S(=O)(=O)C1CCC(C(F)(F)F)CC1 (stereo not drawn)	-3%	0.51
O=C(Nc1nc(-c2cccc3ccccc23)cs1)c1ccc2c(c1)CCCC2	-3%	0.47
CCCNC(=O)c1cn2c(n1)[C@@H](c1ccccc1)N(C(=O)c1cnc[nH]1)CC2	6%	-0.9
COc1cccc(NC(=O)Nc2ccc(-c3cn4ccc(C)nc4n3)cc2)c1	8%	-0.9
CCN(Cc1ccccc1)C(=O)c1ccnc(N2CCC(C)CC2)n1	-4%	0.66
NC(=O)Cc1ccc(OCc2noc(C(=O)NCc3ccco3)n2)cc1	-5%	0.5
CCn1c(=O)c(-c2noc(CCC(=O)N3CCCC3)n2)nn(-c2ccc(C)cc2)c1=O	-6%	1.06
Cc1nc(-c2cc(S(=O)(=O)Nc3ccc(Cl)cc3)c(C)s2)cs1	-1%	0.09
O=S(=O)(Cc1ccccc1)N1CCC[C@H]1c1n[nH]c2c1COCC2	-6%	1.1
Cc1cc(=O)n2nc(-c3ccccc3Cl)nc2n1CC(=O)N1CCCCC1	-3%	0.34
O=C(Nc1cc(F)cc(F)c1)OCC(F)(F)F	26%	-3.55
CCN(CC)Cc1cnc2c(C(=O)N(C)C3CCOCC3)cnn2c1	-14%	2.56
CC(C)CS(=O)(=O)NC(=O)C1CC1C (stereo not drawn)	-2%	0.27
O=C(NCCn1nc(-c2ccco2)n(C2CC2)c1=O)c1cccc(-n2cnnn2)c1	-1%	0.15
COC1(CC(=O)N[C@@H](Cc2ccccc2)C(=O)N(C)c2ccccc2)CCC1	0%	-0.02
CN(Cc1cccs1)C(=O)CN1CCc2cncnc2C1	-6%	0.95

SMILES	% Inhibition	Z score
COc1ccc(NC2CCCC(N3C(=O)c4ccccc4C3=O)C2)c(OC)c1 (stereo not drawn)	-9%	1.01
CCC(C)[C@H](NC(=O)NCc1cccnc1)C(=O)OC (stereo partly drawn)	-2%	0.3
O=S(=O)(c1ccccc1Cl)N1CCc2oncc2C1	-11%	1.79
CC(=O)Nc1nc(-c2c(F)c(F)c(F)c(F)c2-c2ccccc2)cs1	-10%	1.85
Cn1cnnc1C1CCN(CC(Cc2ccccc2)Cc2ccccc2)CC1	-2%	0.3
C=CCn1c(=O)c2sc(N(CC)CC)nc2n(CC(=O)Nc2cccc(F)c2)c1=O	-28%	2.5
CN(CCC[C@H]1CCCO1)c1ccnc(C(F)(F)F)n1	1%	-0.13
Cc1cccc(-c2nocc2CCC(=O)NC2CC2)c1	-7%	0.91
CC[C@]1(O)CCCN(C(=O)c2ccncc2C)C1	2%	-0.36
CCN(CC(F)(F)F)C(=O)Nc1ccc(F)c(F)c1	0%	-0.02
Cc1cc(OCC(N)=O)ccc1Br	-12%	1.61
CCOC(=O)C1=NN=C2C(=O)N(c3ccc(C)cc3)C(=O)[C@@H]12	-14%	1.46
Cc1cc(NC(=O)c2cn([C@H]3CC[C@@H](N)CC3)nn2)cc2sc(N)nc12	12%	-2.46
Cc1ccccc1N1CCN(C(=O)CC[C@@H]2CN(Cc3ccccn3)CC[C@@H]2N2CCOCC2)CC1	2%	-0.27
O=C(c1cc(F)ccc1F)N1CCC[C@H](c2nc(C3CCOCC3)no2)C1	-3%	0.42
O=C(CCc1ccccc1)N1CCC[C@H](Oc2cccnn2)C1	-10%	1.18
O=C(NC1CC(C(F)(F)F)C1)c1cnnc2ccccc12 (stereo not drawn)	-5%	0.56
Cc1cc(-c2noc(COc3cc(C)c(Cl)c(C)c3)n2)c2ccccc2n1	-13%	1.96
CN1CC2(C[C@H]1c1noc(-c3ccccn3)n1)CN(C(=O)C1CCOCC1)C2	-10%	1.62
COCC1(S(=O)(=O)N2CC3CCCC3C2)CC1 (stereo not drawn)	-16%	1.83
Cc1[nH]nc(CCC(=O)N[C@H](c2cnn(C)c2)C2CC(O)C2)c1C (stereo partly drawn)	-15%	1.37

SMILES	% Inhibition	Z score
Cc1nc(NC(=O)CCNS(=O)(=O)c2ccc(Cl)cc2)sc1-c1ccccn1	0%	0.02
Cc1nnc2c(=O)n(CC(=O)N3CCCCCC3)c3cccnc3n12	-5%	0.7
CCCCC(=O)Nc1cc(C(=O)O)ccc1N(CC)CCN(C)C	-8%	1.24
Cc1nnc(CCN2C[C@@](C)(c3ccccc3)CCC2=O)[nH]1	31%	-3.99
CC(C)(C)OC(=O)N[C@H](C(=O)O)C1CCCCC1	-8%	1.37
O=C(COC1CCCCC1)Nc1cccc2oc(C(F)(F)F)nc12	25%	-2.81
Cc1ccc(-c2c(C3c4ccccc4C(=O)N3CC3CCCO3)c3ccccc3n2C)cc1 (stereo not drawn)	2%	-0.21
COCCN(CC(=O)N(C)C)S(=O)(=O)C[C@H]1CCC[C@@H]1C	-9%	1.58
CN(C)c1ncc(Br)c2c1CN(C(=O)CO)CC2	-6%	0.68
CN(C)S(=O)(=O)c1ccc2c(c1)nnn2CCC(=O)N1CCN(c2ncccn2)CC1	10%	-1.85
CCOc1ccc(C)cc1S(=O)(=O)N1CC=C[C@@H]1CC	2%	-0.41
CCOC(=O)N1CCN(C(=O)c2cc(O)c(OCc3ccccc3)cn2)CC1	0%	0.06
Cc1ccc(CC(=O)Nc2ccc(N3C(=O)CCC3=O)c(C)c2)s1	-7%	0.94
CN(C[C@H](O)c1cccnc1)c1nccn2nnnc12	-4%	0.67
CC1(CC(=O)N2CCC[C@H]2C(N)=O)CCCCC1	1%	-0.22
c1ccc(-c2nnc(C3CCNCC3)s2)cc1	-11%	1.51
Cc1ccc(C(=O)N2CCc3c(c4ccccc4n3Cc3ccccc3)C2)cc1	-4%	0.48
Cc1[nH]c(=O)[nH]c(=O)c1CN1CCO[C@@H](CCCc2ccccc2)C1	4%	-0.86
COCCCn1c(=O)c2ccccc2n(CC(=O)N2CCN(c3ccccc3F)CC2)c1=O	5%	-0.76
Cc1cnc(CCNC(=O)C2CCC(=O)C(C)C2)nc1 (stereo not drawn)	-6%	0.98
COc1ccccc1NC(=O)Nc1cc(C)c2nc(NS(=O)(=O)c3ccc(C)cc3)sc2c1	-13%	2.06

SMILES	% Inhibition	Z score
Cc1c(C(=O)N2CCC3(CC2)COC(=O)O3)n(C)c2ccc(F)cc12	-14%	1.38
CC(=O)Nc1ccc(OC2CCCCC2O)cc1 (stereo not drawn)	-12%	1.2
CC[C@@H](C(=O)N1CCCN(c2ccc(NC(=O)c3ccc(C)cc3)cc2C(=O)N2CCCCC2)CC1)c1ccccc1	-16%	1.89
CC(=O)N[C@@H]1CC[C@H]2CCOc3ccccc3C(=O)N3CCN(Cc4cccnc4)C[C@H]3C(=O)NC[C@H]1O2	-2%	0.38
OCC[C@H]1CN(Cc2nc3c(s2)CCCC3)CCN1Cc1ccsc1	-2%	0.37
CC(C)(CO)CNC(=O)c1cn(Cc2cccc3ccccc23)nn1	-10%	1.32
COc1cc(CN2CCC(N(c3ccc(OC)c(OC)c3)S(=O)(=O)c3ccc(F)cc3)CC2)cc(OC)c1	-2%	0.24
O=C(NCc1cccnc1)c1nn[nH]c1Nc1ccccc1F	2%	-0.32
CC1CCC(C)N1C(=O)C(=O)Nc1cncc(Br)c1 (stereo not drawn)	-12%	1.37
CC1CCN(Cc2ccc(-c3ncnn3C(C)(C)C)o2)CC1	-6%	1.14
Cc1ccc(C(=O)N2CCN3[C@@H](C2)CN(C(=O)c2ccc(Cl)cc2)C[C@@]3(C)CO)cc1	-1%	0.18
COc1ccc2ncn(C[C@@H](CO)C(C)C)c(=O)c2c1	0%	0.01
Cc1cnc(CN2CCNC(=O)[C@@H]2CC(C)C)s1	3%	-0.49
C#CC[C@H](NC(=O)c1ccc(C)s1)C(N)=O	-2%	0.35
O=C(Cn1cncn1)N1CCC[C@H](Cc2nc(-c3ccsc3)no2)C1	27%	-3.52
O=C1O[C@H](C(=O)N2CCc3ccccc32)Cc2ccccc21	-10%	1.05
O=C(Nc1ccc2c(c1)cc(C(=O)Nc1ccc(C(F)(F)F)cc1)n2Cc1cccc(F)c1)c1ccccc1Cl	30%	-4.07
CCCCc1ccnc(NS(=O)(=O)c2sc(C)nc2C)n1	-6%	0.74
C[C@@H]1Oc2ccc(NC(=O)CNC(=O)c3cccs3)cc2NC1=O	-14%	2.71
CCOC(=O)Cc1csc(NC(=O)c2cc(Cl)c3c(c2)OCCCO3)n1	0%	0.09
Cc1cc(N)n(CC(=O)NCCC2=CC[C@H]3C[C@@H]2C3(C)C)n1	3%	-0.53
